# This is one part of the list.
# Test system: PF3D7_0420300 AP2 domain 1 (GST-tagged)
# Assay: gcPBM binding intensity (ln(normalized median fluorescence intensity)); higher = stronger DNA binding
# Summary of the method: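 Alexa488 anti-GST antibody, scanned at 488 nm, detected GST-tagged P. falciparum DNA-binding domains that had been expressed in E. coli and incubated for 1 h on an Agilent 4 × 180k array. The array carried primer-extended double-stranded 36-bp intergenic genomic probes and negative controls. Binding intensity is the highest Masliner-normalised natural-log median intensity across replicate spots of either orientation of each probe.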
row,Sequence,gcPBM binding intensity (ln)
1,CATACTCTACATAGATGTACTCATTTAAAAAAAAAA [XGTACX_site6945],8.83
2,ATTTTTTTTTTTTTTTTTTTTTTTTTCTCTCTCACT [CACACA_negctrl_site1046],9.11
3,TTTTTTTTTAAGCAAAGGAAATCAAAATAAAAATAT [CACACA_negctrl_site719],8.96
4,TTTTTTTTTTTTTTTTGTACACATAGTAAAAATTAA [XGTACX_site2410],8.59
5,TGTTATTAAAACGTGACACACAATATATATATATAT [CACACA_site3539],9.34
6,TTATAAATTATATATATGACCAATAATTGTGAGCAT [CACACA_negctrl_site725],9.3
7,TATATATATATATGTTGTACTTTTAATTTAAATGTA [XGTACX_site4239],9.32
8,TTTTTTTTTTATTCTACACACATATGTTTTTATATG [CACACA_site182],9.71
9,TTTTTTTTTTGTAGTTGTACGAACTAGCTATTTATG [XGTACX_site692],9.17
10,TTGGCATACAGACACACACACACACGCCCACATATA [CACACA_site6425],10.2
11,ATATATATATATATATGTACATATATATATTTTTTA [XGTACX_site5987],9.25
12,ATCAATACACATATATGTACATATAATAATTATCTT [XGTACX_site662],9.4
13,TTATTTTTTCAAGAATGTACTTACGAATTGTCGTAT [XGTACX_site1363],8.78
14,CAAAAAAACAAACACACACACACACCCATATATATA [CACACA_site3653],10.2
15,TAATTACCATATGGTACACACATATATATATGTATA [CACACA_site3487],9.48
16,TTAACAAATGGACACACACACACACCCAAAAAAAAA [CACACA_site4443],9.91
17,TTATATTAAACAAACACACACATATATATATATATA [CACACA_site2382],9.53
18,TATATATATATATATTGTACATATTGTATATATTGT [XGTACX_site3212],9.3
19,TGTTACATATTATAAATACATTAACTATTATATGTA [CACACA_negctrl_site1735],9.16
20,TATATATATATTTATACACACATTAGTGTATCCATG [CACACA_site5609],9.56
21,TACTATGCCCCATATAAACACACAAATAAAAAGAAT [CACACA_site8857],9.65
22,TATAAACCTACATACACACATACAATAAGTAAAATG [CACACA_site1921],9.91
23,ATGTATCATAAGAACTGTGTGGTTACAGACACGAAC [GTGCAC_negctrl_site416],9.57

row,Sequence,gcPBM binding intensity (ln)
1,CTATGCATTTATAGTGCATGTAAAATATAAGATAAT [TGCATGCA_site71],9.22
2,TATAATTAATTAGAAGTGCATTAGGTAACAACTGTC [GTGCAC_site9746],9.39
3,AACTATATATATAATTCACACATGTTTTAAAATTTT [CACACA_site4971],9.38
4,AACGCAGTTTAATATACACACCAAAAAAAAAAAAAG [CACACA_site5643],9.45
5,ATATATTCTTATTGCTGTACACATATTTTCTAAAAA [XGTACX_site4851],9.28
6,TTTCCTTTTTTAATATGTACACATATTATTATATCT [XGTACX_site3079],9.45
7,AAAAATATAATATAATGTACACATAAACAAAAAAAA [XGTACX_site3658],9.58
8,TAACCACAAAAATAAAATCAAAAAAAAAAAAAAAAA [CACACA_negctrl_site1727],8.34
9,TTTCTTAAATATATGCGTACTCAAAATTGTTCTACA [XGTACX_site7995],8.86
10,AACAGACATACATACACACATACATACAGACATACA [CACACA_site1942],9.9
11,TAAAATAAAACAAACACACACACACCGACACAAAAA [CACACA_site5993],10.2
12,ATATATATATATTTCGCACACATAATCTTATTAAAT [CACACA_site2579],9.4
13,ACATTCTATACATACACACCCACACCCAAAAAAAAA [CACACA_site863],9.7
14,TATATATCAATATACACACACACATATTTATTTATA [CACACA_site6858],10.1
15,CGTAAATTTTTCTAAGTGCATGTTAATTTTTCAATT,9.28
16,TAAATACCTATATGGCGTACTATTATCATAGTATAT [XGTACX_site5423],9.32
17,TATTTATTATGATACTCATATTATTCTATGATTAAA [GTGCAC_negctrl_site486],9.04
18,ATTTTCAAATTAAAATGTACAAATGAAAGAAAGGGA [XGTACX_site7048],9.36
19,GTGAATCCTAAGTGTACACATCTTACAGATATATAT [CACACA_site4836],9.4
20,TGAAATAAAATTTGTACACACATATATATATATATA [CACACA_site586],9.37
21,GCACAAATCATCAAATGTACAGAAAATGCTGTCAAT [XGTACX_site5037],9.14
22,ATATAGGTATAATACACACACTAATATGTAACTGTA [CACACA_site7011],9.72
23,TTCCTTCATTGGAAAAGTACACAATATTGTCGTTTA [XGTACX_site8057],9.24

row,Sequence,gcPBM binding intensity (ln)
1,TATGATATGTATGGAAGTACGAAGAGGGATGATCAG [XGTACX_site1677],9.35
2,TTAAAAATAAAACAAAGTACTCAAGTTATTGTCTTT [XGTACX_site1584],9.15
3,CACGCATACAGACACACACACACACCCATATATATA [CACACA_site636],10.2
4,AATATATTTTTTTTTGGTACACAAGCACATCTATAC [XGTACX_site2183],9.19
5,TTTCGATTATGTTTTTGTACGCAATATATTAATTCT [XGTACX_site3634],9.39
6,AATGTGCAGAAAAGTGGTACATATGATTGTTAAGAG [XGTACX_site1038],9.46
7,CCATGATTATTAGATTGTACATAACATACAAATTGA [XGTACX_site314],9.07
8,ATGTCATATATATGTTGTACGAGTTTGTTTATGTAT [XGTACX_site1150],9.73
9,AGTTTACATTAAATCACGCACACAAAAAAAAAAAAA [CACACA_site2419],9.3
10,TTCATTTTATAAAAAGCACACATATAGTTATATGCA [CACACA_site9228],8.97
11,TACCTTTTTTATGTTGCACACTGGGATGTTTTCTAA [CACACA_site1653],9.68
12,ATTCATATTTTTCAAGTGCGCATTAAAATATTAACC [GTGCAC_site9741],9.17
13,TTATTACGAACTCTGCAACATATATAAATAAATAAA [CACACA_negctrl_site44],8.86
14,AAAATAATATTTAATACACACATAATTACAATATAA [CACACA_site6510],9.54
15,TACGTATTCATGTATAGTACTCTTTTTTTTAATAAA [XGTACX_site3299],9.01
16,AAAGATAAAATATATACACACACATAAATACGTACA [CACACA_site8275],10.1
17,GAATAAATTAAATTCACACATAAAATACAAAATACA [CACACA_site5495],9.54
18,ATTATATTTGAATGGTGTACTATAATAATGTAGTTT [XGTACX_site8069],9.42
19,ACATATATATATATATAAATATATATGTATGTATTT [XGTACX_negctrl_site237],9.14
20,CATACACGCGGACACACACACACACGCATATATAAC [CACACA_site6427],10.4
21,CTTATATTAATTATTACACACATATATATAAATGCA [CACACA_site770],9.41
22,AAAGAAAATAGGTGTACACATAATAAATACAGCTAT [CACACA_site5917],9.77
23,AAAAAAAAAAAAACTAGTACATATATATAGTATGAA [XGTACX_site6279],9.21

row,Sequence,gcPBM binding intensity (ln)
1,AAAACAAATAAGTAAACACACATATATAATATATAT [CACACA_site2586],9.64
2,TTTATTTTTTATATATCACTTAAAAAAAAAAAAAAA [CACACA_negctrl_site249],8.41
3,GAATATAAAAGGAACGGTACAGAAAAAAAAAAAAAA [XGTACX_site3917],9.33
4,ATTTATATTTTATATACACACATGAACTTATATGGA [CACACA_site3167],9.49
5,AATATAGTCTCACATACACACATATATATTTATATA [CACACA_site2503],9.58
6,CTTTTTTTTTTATGCACACACAATTATACATTCCTT [CACACA_site3877],9.83
7,ATAACCTAATAATACACACACATGAATATATATAAT [CACACA_site4689],10
8,ATGTAATATATTATATGTACATATTTTTATGTAGAT [XGTACX_site5945],9.2
9,TTTTTAATTTAAAAAAATAATATTTTATATTCCGAA [CACACA_negctrl_site108],8.52
10,GTAAGCATCAAAAAAGGTACAGAAATTATAAATAAA [XGTACX_site6708],9.28
11,TATTTTTTATTTTTTTGTACATATTTGATAATTAAT [XGTACX_site316],9.37
12,AAATATTTATATATATGTACACATATAATATTTTTA [XGTACX_site2338],9.08
13,ATATATGTTATTATTTGTACACACACATATATATCC [XGTACX_site7657],9.92
14,ATTTCTAATATTTTTGCACACTAAACAATAAATTTC [CACACA_site3943],9.34
15,GAAAATTTATTTTTGGTGCATGTATTTATTTATTTT,9.38
16,AAAAAAAAAAGAAACACACACATATATATATATAAT [CACACA_site5052],9.85
17,TATATATATTCTTTAAAACACACGTAAAGAAGAATT [CACACA_site2718],9.34
18,CATTTATTTATATACACACACACAAAAAAAAAAAAA [CACACA_site7279],9.84
19,TGCTATATTATTATCGCACACCGTTGATTCTAAATA [CACACA_site1207],9.28
20,ATAAGTGTATAAAAATGTACGTGTATAAAAATATGT [XGTACX_site8235],9.65
